# Measured values published in a collection of fitness landscapes (doi:10.1016/j.celrep.2020.107928).
# Over roughly 81,000 sequences, “one-hybrid fitness for binding NBS DNA” has its median near -0.1; the highest 2% begin near 0.36. The list shows a part of the results.
# B1: Caulobacter ParB omega fusion; a variant is named by its letters at X, in order, B8GW30 (parent)
# chain: MESVVVGEPGMSEGRRGLGRGLSALLGEVDAAPAQAPGEQLGGSREAPIEILQRNPDQPRRTFREEDLEDLSNSIREKGVLQPILVRPSPDTAGEYQIVAGERAWRAAQRAGLKTVPIMVRELDDLAVLEIGIIENVQRADLNVLEEALSYKVLMEKFERTQENIAQTIGKSXSHVANXMRLLXLPDEVQSYLVSGELTAXHARAIAAAADPVALAKQIIEGGLSVRETEALARKAPNLSAGKSKGGRPPRVKDTDTQALESDLSSVLGLDVSIDHRGSTGTLTITYATLEQLDDLCNRLTRGI
# Variants of: B1
# Test: one-hybrid fitness for binding NBS DNA (the Noc-binding site; scaled: cognate 1, non-cognate 0); higher = stronger binding
# Conditions: with NBS DNA site
# Summary of the method: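 Fitness is the rescaled log change in variant-to-wild-type read ratio, measured by Illumina sequencing of plasmids before and after bacterial one-hybrid selection. The scale puts cognate at 1 and non-cognate at 0. Selection of Caulobacter ParB libraries, four specificity codons randomised, took place in E. coli USO with a HIS3 reporter, site 19 bp from the promoter, over 48 hours at 37°C on M9-minus-histidine with 0.1 mM IPTG and 5 mM 3-AT.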
row,Variant,one-hybrid fitness for binding NBS DNA
1,LAGL,≤ 0.2
2,QPRQ,≤ 0.2
3,WIRL,≤ 0.2
4,LLEL,≤ 0.2
5,WYKL,≤ 0.2
6,SYHI,≤ 0.2
7,HGWW,≤ 0.2
8,DQDC,≤ 0.2
9,NAIT,≤ 0.2
10,SPAP,≤ 0.2
11,WVMC,≤ 0.2
12,VEYS,≤ 0.2
13,NVIG,≤ 0.2
14,RWRQ,≤ 0.2
15,ASRH,≤ 0.2
16,IQME,≤ 0.2
17,TEKD,≤ 0.2
18,ILDL,≤ 0.2
19,TLSA,≤ 0.2
20,AKTC,≤ 0.2
21,TSIA,≤ 0.2
22,PSTP,≤ 0.2
23,DDER,≤ 0.2
24,NFTG,≤ 0.2
25,TQKG,≤ 0.2
26,GPPI,≤ 0.2

row,Variant,one-hybrid fitness for binding NBS DNA
1,QQQW,≤ 0.2
2,ENNC,≤ 0.2
3,YTRL,≤ 0.2
4,FSPW,≤ 0.2
5,HGQS,≤ 0.2
6,YSHR,≤ 0.2
7,DLSQ,≤ 0.2
8,HPKV,≤ 0.2
9,ICRC,≤ 0.2
10,QTDA,0.255
11,SFVR,≤ 0.2
12,QDKA,≤ 0.2
13,WLKN,≤ 0.2
14,DAQG,≤ 0.2
15,ENSP,≤ 0.2
16,CCGR,≤ 0.2
17,WALS,≤ 0.2
18,QPYR,≤ 0.2
19,LQYL,≤ 0.2
20,PPPR,≤ 0.2
21,FVVV,≤ 0.2
22,VYSR,≤ 0.2
23,THFM,≤ 0.2
24,YALR,≤ 0.2
25,KNQG,≤ 0.2
26,DEAT,≤ 0.2

row,Variant,one-hybrid fitness for binding NBS DNA
1,WHAL,≤ 0.2
2,KFCS,≤ 0.2
3,LRKC,≤ 0.2
4,TCVF,≤ 0.2
5,SLWW,≤ 0.2
6,IDNW,≤ 0.2
7,VKAI,≤ 0.2
8,MHVN,≤ 0.2
9,ARTA,≤ 0.2
10,RARH,0.306
11,SPPH,≤ 0.2
12,RTNL,≤ 0.2
13,TCNS,≤ 0.2
14,PSSL,≤ 0.2
15,RAWW,≤ 0.2
16,SSTY,≤ 0.2
17,IPSL,≤ 0.2
18,SSRW,≤ 0.2
19,TNPG,≤ 0.2
20,RAMH,≤ 0.2
21,YSWL,≤ 0.2
22,QKKY,0.498
23,NESA,≤ 0.2
24,WGHP,≤ 0.2
25,ANGM,≤ 0.2
26,GARE,≤ 0.2

row,Variant,one-hybrid fitness for binding NBS DNA
1,NRTP,≤ 0.2
2,CFYS,≤ 0.2
3,RCSP,≤ 0.2
4,TEKR,0.248
5,DKGG,≤ 0.2
6,VPLV,≤ 0.2
7,QMHW,≤ 0.2
8,GPPL,≤ 0.2
9,ASLV,≤ 0.2
10,SHEV,≤ 0.2
11,SVGS,≤ 0.2
12,THAM,≤ 0.2
13,WLSD,≤ 0.2
14,DLGA,≤ 0.2
15,GTVK,≤ 0.2
16,NQSG,≤ 0.2
17,RYPW,≤ 0.2
18,MECV,≤ 0.2
19,HWPG,≤ 0.2
20,IIGG,≤ 0.2
21,NNMG,≤ 0.2
22,CFLY,≤ 0.2
23,QDLY,≤ 0.2
24,PHGP,≤ 0.2
25,QHIF,≤ 0.2
26,SWTT,≤ 0.2

row,Variant,one-hybrid fitness for binding NBS DNA
1,WQKG,≤ 0.2
2,RFGI,≤ 0.2
3,EMND,≤ 0.2
4,SKLG,≤ 0.2
5,SDNL,≤ 0.2
6,PRHM,≤ 0.2
7,RRCA,0.584
8,TTFG,≤ 0.2
9,IIKC,≤ 0.2
10,LDHG,≤ 0.2
11,YYSY,≤ 0.2
12,WMWG,≤ 0.2
13,CCRY,≤ 0.2
14,PACD,≤ 0.2
15,YAKF,≤ 0.2
16,EEPR,≤ 0.2
17,AAWL,≤ 0.2
18,QMNE,≤ 0.2
19,KGFY,≤ 0.2
20,GYLV,≤ 0.2
21,STNC,≤ 0.2
22,HTGF,≤ 0.2
23,VFMS,≤ 0.2
24,LYCC,≤ 0.2
25,NDDS,≤ 0.2
26,TEKT,≤ 0.2

row,Variant,one-hybrid fitness for binding NBS DNA
1,CMEW,≤ 0.2
2,VKTS,≤ 0.2
3,LDSW,≤ 0.2
4,AKWR,≤ 0.2
5,KRPH,≤ 0.2
6,RDRI,≤ 0.2
7,QKQW,≤ 0.2
8,ISHL,≤ 0.2
9,RVDS,≤ 0.2
10,SFYR,≤ 0.2
11,CVAV,≤ 0.2
12,YAKD,≤ 0.2
13,WDPS,≤ 0.2
14,TVKR,0.211
15,HKHG,≤ 0.2
16,NVCL,≤ 0.2
17,WCAR,≤ 0.2
18,STGK,≤ 0.2
19,NRML,≤ 0.2
20,AIIR,≤ 0.2
21,FMPR,≤ 0.2
22,QVKN,≤ 0.2
23,LSWV,≤ 0.2
